Laboratory results taken from the supplement of paper PMC8183993.
“And” between values parts separate entries of the source, which are not always exact repeats. Equal values may be shown once. Where a name gives a salt, the structure may show the parent alone. ± gives the standard deviation of the averaged measurements. In all, about 3,100 compounds were measured (“mean cytoplasmic OPP incorporation (global translation) relative to DMSO”: median about 100, lowest 2% from about 56 on). The list shows a part of the results.

Tested on: U2OS
Test: mean cytoplasmic OPP incorporation (global translation) relative to DMSO (% of DMSO); higher = more protein synthesis
Settings: 10 µM; 24 h
Description: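 Primary image-based screen in U2OS cells: compounds at 10 uM for 24 h, then a 1 h o-propargyl-puromycin (OPP) pulse, click labelling, and high-throughput microscopy. Mean cytoplasmic OPP intensity and nuclei count were normalised to DMSO wells within each plate (DMSO = 100) and averaged over triplicate plates.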

First: CC(=O)N(O)[C@@H]1c2cc(C#N)ccc2OC(C)(C)[C@H]1O
Second: Cc1sc(N)c(C(=O)c2cccc(C(F)(F)F)c2)c1C
The “mean cytoplasmic OPP incorporation” value of the first is lower: 93.3 for the first, 107 for the second.

Compared with `COc1ccccc1C(=O)Nc1cc2c(cc1N1CCCC1)n(C)c(=O)n2C`, `COc1ccc(OC)c2c(=S)c3ccccc3[nH]c12` is lower in “mean cytoplasmic OPP incorporation” value: 122 for the first, 104 for the second.

Compared with `O=C(CCc1ccc(O)cc1)c1c(O)cc(O)cc1O[C@@H]1O[C@H](CO)[C@@H](O)[C@H](O)[C@H]1O` [Phlorizin (Phloridzin)], `COc1ccc(CCN(C)CCCC(C#N)(c2ccc(OC)c(OC)c2)C(C)C)cc1OC` (configuration not stated) [Verapamil hydrochloride] is higher in “mean cytoplasmic OPP incorporation” value: 87.9 for the first, 104 for the second.

Compared with `C[C@]12CCC(=O)C=C1CC[C@@H]1[C@@H]2[C@@H](O)C[C@@]2(C)[C@H]1CC[C@]2(O)C(=O)CO` [Hydrocortisone (Cortisol)], `C=C1C(=O)O[C@@H]2/C=C(\C)CC/C=C(\C)CC[C@@H]12` [Costunolide] is lower in “mean cytoplasmic OPP incorporation” value: 104 for the first, 90.4 ± 5.7 for the second.

Compared with `C[C@]12CCC(=O)C=C1CC[C@@H]1[C@@H]2[C@@H](O)C[C@@]2(C)[C@H]1CC[C@]2(O)C(=O)CO` [Hydrocortisone base], `COc1ccc(-n2[nH]c3c4c(ncc3c2=O)CCCCC4)cc1` is lower in “mean cytoplasmic OPP incorporation” value: 106 for the first, 92.9 for the second.

Going from `CCCCCCC[N+](CC)(CC)CCCCc1ccc(Cl)cc1` [Clofilium tosylate] to `N=C(N)c1ccc(OCCCCCOc2ccc(C(=N)N)cc2)cc1` [Pentamidine isethionate], the “mean cytoplasmic OPP incorporation” value rises from 84.3 to 98.4.

First: CCOC(=O)C1=C[C@@H](OC(CC)CC)[C@H](NC(C)=O)[C@@H](N)C1 [Oseltamivir phosphate (Tamiflu)]
Second: CO/N=C(\C(=O)N[C@@H]1C(=O)N2C(C(=O)OCOC(=O)C(C)(C)C)=C(/C=C\c3scnc3C)CS[C@H]12)c1csc(N)n1 [Cefditoren pivoxil]
The “mean cytoplasmic OPP incorporation” value of the first is lower: 102 for the first, 105 for the second.

First: CNCCCC1c2ccccc2C=Cc2ccccc21 [Protriptyline hydrochloride]
Second: c1ccc2c(Cc3c[nH]c4ccccc34)c[nH]c2c1 [Diindolylmethane]
The “mean cytoplasmic OPP incorporation” value of the first is higher: 107 for the first, 93.7 for the second.

First: C[N+]1(CCCCC[N+]2(C)CCCC2)CCCC1 [Pentolinium bitartrate]
Second: CCCc1cc(=O)[nH]c(=S)[nH]1 [Propylthiouracil]
The “mean cytoplasmic OPP incorporation” value of the first is higher: 99.8 for the first, 92.5 for the second.

Going from `Cc1onc(-c2ccccc2)c1-c1ccc(S(N)(=O)=O)cc1` [Valdecoxib] to `CCC(=O)N1CCN(c2ccc(-n3c(=O)ccc4cnc5ccc(-c6cnc7ccccc7c6)cc5c43)cc2C(F)(F)F)CC1` [Torin 1], the “mean cytoplasmic OPP incorporation” value falls from 102 to 73.

With `N=C(N)c1ccc(OCCCCCOc2ccc(C(=N)N)cc2)cc1` [Pentamidine] the “mean cytoplasmic OPP incorporation” value was 104.

With `O=C(Nc1ccccc1)c1cc([N+](=O)[O-])ccc1Cl` the “mean cytoplasmic OPP incorporation” value was 94.7 and 80.7.
